# Data as given in publication PMC4336329 (PLoS ONE, 2015).
# Hit rate of the full screen: of about 310,000 compounds, about 14,000 (4.5%) showed an effect of 50% or more. Effects have a minus sign here. The list shows a part of the results.
# Target: human ether-à-go-go-related gene (hERG) potassium channel (human, UniProt Q12809)
# Experiment: primary screen, population patch clamp on CHO cells stably expressing hERG
# 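Also: peak tail current of the secondary pulse compared with the same well before compound.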
# Sequence of human ether-à-go-go-related gene (hERG) potassium channel (Q12809 whole entry, looked up): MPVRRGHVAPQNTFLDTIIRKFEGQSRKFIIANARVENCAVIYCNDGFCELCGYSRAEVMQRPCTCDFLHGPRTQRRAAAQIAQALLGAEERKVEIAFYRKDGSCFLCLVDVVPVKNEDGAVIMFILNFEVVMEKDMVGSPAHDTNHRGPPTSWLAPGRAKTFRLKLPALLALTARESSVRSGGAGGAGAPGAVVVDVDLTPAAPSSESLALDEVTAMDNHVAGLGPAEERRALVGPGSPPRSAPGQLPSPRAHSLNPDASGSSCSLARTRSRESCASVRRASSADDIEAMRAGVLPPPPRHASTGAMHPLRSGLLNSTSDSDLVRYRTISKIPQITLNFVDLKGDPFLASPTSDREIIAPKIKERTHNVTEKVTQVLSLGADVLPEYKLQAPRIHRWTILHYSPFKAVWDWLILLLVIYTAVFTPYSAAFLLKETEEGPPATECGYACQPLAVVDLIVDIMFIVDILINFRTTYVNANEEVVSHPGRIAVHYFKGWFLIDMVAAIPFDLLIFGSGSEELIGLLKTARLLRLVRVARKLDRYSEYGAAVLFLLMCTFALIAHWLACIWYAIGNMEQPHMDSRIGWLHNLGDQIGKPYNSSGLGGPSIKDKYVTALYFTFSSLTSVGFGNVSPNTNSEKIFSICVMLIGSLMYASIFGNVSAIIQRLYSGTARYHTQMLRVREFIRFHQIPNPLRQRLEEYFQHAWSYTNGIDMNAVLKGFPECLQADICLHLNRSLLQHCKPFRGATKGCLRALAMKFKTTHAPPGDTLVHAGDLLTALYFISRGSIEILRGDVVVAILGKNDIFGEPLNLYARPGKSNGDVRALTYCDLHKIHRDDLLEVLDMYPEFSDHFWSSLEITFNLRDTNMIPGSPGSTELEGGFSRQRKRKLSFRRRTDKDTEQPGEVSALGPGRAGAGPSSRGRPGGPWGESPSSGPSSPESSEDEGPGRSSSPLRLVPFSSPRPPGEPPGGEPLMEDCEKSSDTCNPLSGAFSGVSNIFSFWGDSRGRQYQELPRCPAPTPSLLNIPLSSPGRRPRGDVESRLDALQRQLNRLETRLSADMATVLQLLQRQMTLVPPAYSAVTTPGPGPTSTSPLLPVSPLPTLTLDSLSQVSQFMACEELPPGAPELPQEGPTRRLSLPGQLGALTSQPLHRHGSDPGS
row,SMILES,"hERG current change (%, negative = inhibition) at 10uM [%]"
1,CC(C)CN(C(=O)COC(=O)Cc1cccc2ccccc12)c1c(N)n(Cc2ccccc2)c(=O)[nH]c1=O,4.24
2,O=C(Nc1ccccc1Cl)N1CCCN(c2nc(-c3ccccc3)ns2)CC1,-6.02
3,O=C(Nc1ccccc1)Nc1sccc1-c1nc2ccccc2s1,-3.45
4,O=C(Nc1ccccc1)N1CCN(c2ccccn2)CC1,-9.11
5,NC(=O)c1c(NC(=O)CN2C(=O)NC(Cc3ccccc3)C2=O)sc2c1CCC2 (stereo not shown),-26.6
6,O=C1CCC(=O)N1c1ccc(NCCc2cccc(F)c2)c([N+](=O)[O-])c1,8.65
7,O=C(N/N=C/c1c(O)n(Cc2ccc(F)cc2)c(=O)[nH]c1=O)c1ccccc1O,14.1
8,CN(c1ccccc1)S(=O)(=O)c1ccc(C(=O)Nc2nnc(C3=COCCO3)o2)cc1,-40.3
9,Cc1cc(NC(=O)c2oc3ccccc3c2C)ccc1-n1cnnn1,-17.8
10,COc1ccc(CC(=O)n2[nH]c(=O)c3ccccc3c2=O)cc1OC,12.2
11,Cn1c(CC2Sc3ccccc3NC2=O)nnc1SCC(=O)c1ccc(Cl)cc1 (stereo not shown),-9.27
12,Cc1cc(N/N=C/c2ccc(O)cc2)nc(NS(=O)(=O)c2ccccc2)n1,20.1
13,COC(=O)c1c(C)cc(OC(C)=O)c(C)c1OC(C)=O,17
14,CCOC(=O)c1[nH]c(C)c(C(=O)OCC(=O)NC2CCS(=O)(=O)C2)c1C (stereo not shown),17.6
15,Cc1ccc(C(=O)NNC(=O)c2cc(OCC(F)(F)F)ccc2OCC(F)(F)F)cc1,-13.9
16,CCOC(=O)N1CCN(C(=S)NC(=O)c2ccc(F)cc2)CC1,-4.09
17,COc1ccc(CNCCC(c2ccc(F)cc2)c2ccc(OC(C)C)cc2)cc1OC (stereo not shown),-73
18,O=C(OCCNc1ncc(C(F)(F)F)cc1Cl)c1ccc(S(=O)(=O)N2CCOCC2)cc1,-3.15
19,Cn1c(=O)n(C)c2cc(NC(=O)c3cccc([N+](=O)[O-])c3)c(Br)cc21,-7.32
20,COC(=O)c1cn(NC(=O)Cc2ccc(Cl)c(Cl)c2)c(=O)c2ccccc12,8.58
21,CC(=O)c1ccc(N2CCN(C(=O)c3ccc(NC4=NC5CS(=O)(=O)CC5S4)cc3)CC2)cc1 (stereo not shown),-1.77
22,Cc1c(NC(=O)c2cc3c(s2)CCCC3)c(=O)n(-c2ccccc2)n1C,16.7
